From the GPR68 mutational scans of Howard et al. (2025)
The least precise scores are not listed. The source holds two more conditions with little spread; they are left out. Read del as a deletion of the residues named and ins as an insertion between two positions. For some of these results: The concentration of ogerin is not given here.

B1: GPR68, Q15743 (parent)
chain: MGNITADNSSMSCTIDHTIHQTLAPVVYVTVLVVGFPANCLSLYFGYLQIKARNELGVYLCNLTVADLFYICSLPFWLQYVLQHDNWSHGDLSCQVCGILLYENIYISVGFLCCISVDRYLAVAHPFRFHQFRTLKAAVGVSVVIWAKELLTSIYFLMHEEVIEDENQHRVCFEHYPIQAWQRAINYYRFLVGFLFPICLLLASYQGILRAVRRSHGTQKSRKDQIQRLVLSTVVIFLACFLPYHVLLLVRSVWEASCDFAKGVFNAYHFSLLLTSFNCVADPVLYCFVSETTHRDLARLRGACLAFLTCSRTGRAREAYPLGAPEASGKSGAQGEEPELLTKLHPAFQTPNSPGSGGFPTGRLA

How the values were obtained:
[1] = variants of: B1; test: cAMP reporter score (Enrich2 score, wild type = 0); higher = more signal; HEK293T, FACS bins
[2] = variants of: B1; test: surface expression score (Enrich2 score, wild type = 0); higher = more signal; HEK293T, FACS bins

Variant	cAMP reporter score ([1]; pH 6)	cAMP reporter score ([1]; pH 6.5, modulator: ogerin)	surface expression score [2]	cAMP reporter score ([1]; pH 6, modulator: ogerin)
MGNITADNSSMSCTIDHTIHQTLAPVVYVTVLVVGFPANCLSLYFGYLQIKARNELGVYLCNLTVADLFYICSLPFWLQYVLQHDNWSHGDLSCQVCGILLYENIYISVGFLCCISVDRYLAVAHPFRFHQFRTLKAAVGESVVIWAKELLTSIYFLMHEEVIEDENQHRVCFEHYPIQAWQRAINYYRFLVGFLFPICLLLASYQGILRAVRRSHGTQKSRKDQIQRLVLSTVVIFLACFLPYHVLLLVRSVWEASCDFAKGVFNAYHFSLLLTSFNCVADPVLYCFVSETTHRDLARLRGACLAFLTCSRTGRAREAYPLGAPEASGKSGAQGEEPELLTKLHPAFQTPNSPGSGGFPTGRLA [V141E]	-1.42	-1.55	-3.38	
MGNITADNSSMSCTIDHTIHQTLAPVVYVTVLVVGFPANCLSLYFGYLQIKARNELGVYLCNLTVADLFYICSLPFWLQYVLQHDNWSHGDLSCQVCGILLYENIYISVGFLCCISVDRYLAVAHPFRFHQFRTLKAAVGRSVVIWAKELLTSIYFLMHEEVIEDENQHRVCFEHYPIQAWQRAINYYRFLVGFLFPICLLLASYQGILRAVRRSHGTQKSRKDQIQRLVLSTVVIFLACFLPYHVLLLVRSVWEASCDFAKGVFNAYHFSLLLTSFNCVADPVLYCFVSETTHRDLARLRGACLAFLTCSRTGRAREAYPLGAPEASGKSGAQGEEPELLTKLHPAFQTPNSPGSGGFPTGRLA [V141R]	-1.49	-1.36	-0.429	-2.48
MGNITADNSSMSCTIDHTIHQTLAPVVYVTVLVVGFPANCLSLYFGYLQIKARNELGVYLCNLTVADLFYICSLPFWLQYVLQHDNWSHGDLSCQVCGILLYENIYISVGFLCCISVDRYLAVAHPFRFHQFRTLKAAKGVSVVIWAKELLTSIYFLMHEEVIEDENQHRVCFEHYPIQAWQRAINYYRFLVGFLFPICLLLASYQGILRAVRRSHGTQKSRKDQIQRLVLSTVVIFLACFLPYHVLLLVRSVWEASCDFAKGVFNAYHFSLLLTSFNCVADPVLYCFVSETTHRDLARLRGACLAFLTCSRTGRAREAYPLGAPEASGKSGAQGEEPELLTKLHPAFQTPNSPGSGGFPTGRLA [V139K]	-0.747	-1.6	-2.41	
MGNITADNSSMSCTIDHTIHQTLAPVVYVTVLVVGFPANCLSLYFGYLQIKARNELGVYLCNLTVADLFYICSLPFWLQYVLQHDNWSHGDLSCQVCGILLYENIYISVGFLCCISVDRYLAVAHPFRFHQFRTLKAADGVSVVIWAKELLTSIYFLMHEEVIEDENQHRVCFEHYPIQAWQRAINYYRFLVGFLFPICLLLASYQGILRAVRRSHGTQKSRKDQIQRLVLSTVVIFLACFLPYHVLLLVRSVWEASCDFAKGVFNAYHFSLLLTSFNCVADPVLYCFVSETTHRDLARLRGACLAFLTCSRTGRAREAYPLGAPEASGKSGAQGEEPELLTKLHPAFQTPNSPGSGGFPTGRLA [V139D]	-1.78	-2.27	-4.09	
MGNITADNSSMSCTIDHTIHQTLAPVVYVTVLVVGFPANCLSLYFGYLQIKARNELGVYLCNLTVADLFYICSLPFWLQYVLQHDNWSHGDLSCQVCGILLYENIYISVGFLCCISVDRYLAVAHPFRAHQFRTLKAAVGVSVVIWAKELLTSIYFLMHEEVIEDENQHRVCFEHYPIQAWQRAINYYRFLVGFLFPICLLLASYQGILRAVRRSHGTQKSRKDQIQRLVLSTVVIFLACFLPYHVLLLVRSVWEASCDFAKGVFNAYHFSLLLTSFNCVADPVLYCFVSETTHRDLARLRGACLAFLTCSRTGRAREAYPLGAPEASGKSGAQGEEPELLTKLHPAFQTPNSPGSGGFPTGRLA [F129A]	1.39	-0.393		
MGNITADNSSMSCTIDHTIHQTLAPVVYVTVLVVGFPANCLSLYFGYLQIKARNELGVYLCNLTVADLFYICSLPFWLQYVLQHDNWSHGDLSCQVCGILLYENIYISVGFLCCISVDRYLAVAHPFMFHQFRTLKAAVGVSVVIWAKELLTSIYFLMHEEVIEDENQHRVCFEHYPIQAWQRAINYYRFLVGFLFPICLLLASYQGILRAVRRSHGTQKSRKDQIQRLVLSTVVIFLACFLPYHVLLLVRSVWEASCDFAKGVFNAYHFSLLLTSFNCVADPVLYCFVSETTHRDLARLRGACLAFLTCSRTGRAREAYPLGAPEASGKSGAQGEEPELLTKLHPAFQTPNSPGSGGFPTGRLA [R128M]	-0.852	-0.438	1.47	0.002
